PubChem BioAssay AID1508623 (National Center for Advancing Translational Sciences (NCATS), 2021)
Among all 48,000 compounds or so, about 450 (0.94%) were called active. Inconclusive results (about 19%) are left out. Calls follow the shape of the dose curve; as a rule, active = well fitted inhibition curve with a large enough effect; inconclusive = small, poorly fitted or top-dose-only effect; inactive = no such curve, though single readings can be large or run the other way. The list shows a part of the results.

experiment: Primary qHTS for Identification of Small Molecule Inhibitors of Huntingtin Promoter Activity; settings: HEK293 HTT promoter firefly luciferase reporter (activity 0% = vehicle and -100% = no light), 24 h; series mostly up to 57.5 µM; activity change, negative = inhibition: at the top concentration; also: nearly all actives have a fitted effect of over 50% in size
Method in brief: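 HEK293 cells carrying firefly luciferase reporters were seeded at 2,500 per well in Opti-MEM and cultured for 24 h. They were then treated with compounds at up to 57.5 uM final for 24 h at 37 degrees C before Dual-Glo luminescence readout.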
Potency is read from the fitted curve at half-maximal effect.

Compound | activity change, negative = inhibition | Potency
COc1ccc(Cl)cc1NC(=O)c1c(NCc2cccs2)sc2c1CCCC2 | inactive: -8.98% | 
Cc1cccc(-n2ncc(C(=O)Nc3ccc4c(c3)OCO4)c2C2CCN(C(=O)OC(C)(C)C)CC2)c1 | inactive: 14% | 
CN(C)c1ccc(NC(=O)CSC2=Nc3ccccc3C3=NC(CC(=O)NCc4ccc5c(c4)OCO5)C(=O)N23)cc1 (stereo unspecified) | inactive: 2.41% | 
Cc1ccc(S(=O)(=O)Nc2c(C)nc3nc(C)[nH]n3c2=O)c(C)c1 | inactive: -12.1% | 
Oc1ccc(NCc2ccccc2OCc2ccccc2Cl)cc1 | inactive: -18.5% | 
CC(C)C(=O)c1cc2c(cc1NC(=O)c1ccccc1F)OCCO2 | inactive: -14.7% | 
Cc1ccc(NC(=O)Cn2cnc3c(oc4ccccc43)c2=O)cc1 | inactive: 20.1% | 
Cc1ccc(COc2cccc3cc(-c4noc(-c5ccc(C)cc5)n4)c(=O)oc23)cc1 | inactive: -0.98% | 
Cc1ccc(C(=O)c2oc3ccccc3c2NC(=O)COc2ccc(C(C)(C)C)cc2)cc1 | inactive: 9.33% | 
COC(=O)c1ccc(NC(=O)CSc2nc3c(c(=O)n(C)c(=O)n3C)n2Cc2ccccc2)cc1 | inactive: -5.3% | 
COc1ccc(C(=O)NCc2nnc(SCC(=O)Nc3ccc(F)cc3)n2-c2ccccc2)cc1 | inactive: -21.5% | 
CC(=O)N1CCc2cc(S(=O)(=O)CCC(=O)N3CCN(c4ccccc4F)CC3)ccc21 | inactive: -21.8% | 
Cc1cc(Nc2ccc(Cl)cc2)n2cnnc2n1 | inactive: -6.32% | 
COc1ccccc1Cc1nc2ccccc2nc1SCC(=O)N1CCCc2ccccc21 | inactive: -3.18% | 
Cc1ccccc1-c1noc(-c2cc(C(C)C)[nH]n2)n1 | inactive: 51.2% | 
CCN(CC)S(=O)(=O)c1ccc(C(=O)O)cc1 | inactive: -4.58% | 
COc1ccc(-c2nnc(SCC(=O)c3ccc([N+](=O)[O-])cc3)o2)cc1OC | inactive: 0.742% | 
Cc1ccc(-n2c(SCc3ccccc3C)nc3[nH]ncc3c2=O)cc1C | inactive: -17.6% | 
Cc1cccn2c(=O)c3cc(C(=O)NC(C)c4ccccc4)c(=N)n(CCOCCO)c3nc12 (stereo unspecified) | inactive: -0.902% | 
CCOC(=O)c1cc(OC(=O)c2cccc(F)c2)n(-c2ccccc2)n1 | inactive: -15% | 
Cc1ccccc1-c1noc(-c2ccc(N3CCCC3)c([N+](=O)[O-])c2)n1 |  | active: 10 µM
CCOc1ccc(N(C(=O)c2ccc(OC)cc2)S(=O)(=O)c2ccc3c(c2)n(C)c(=O)n3C)cc1 | inactive: -13.5% | 
O=C(NCc1cccnc1)C1CCN(Cc2cc3ccccc3n2Cc2ccccc2)CC1 | inactive: -16.4% | 
CCC(=O)OC1=CN(Cc2ccccc2)S(=O)(=O)c2ccccc21 | inactive: -9.86% | 

Compound | activity change, negative = inhibition | Potency
CC(C)c1ccc(NC(=O)CN2C=NS(=O)(=O)c3ccccc32)cc1 | inactive: -10.3% | 
CCC(=O)C1=C(c2ccc(F)cc2)N(C(=O)CC)n2c(nnc2C2CCCCC2)S1 | inactive: -18.1% | 
Cc1cc(C)cc(NC(=O)CSc2nnc(CNC(=O)c3c(F)cccc3Cl)o2)c1 | inactive: 0.216% | 
CCN(CC)S(=O)(=O)c1ccc2c(c1)N(CC(=O)Nc1c(C)cc(C)cc1C)C(=O)CS2 | inactive: -16.3% | 
COC(=O)c1cc2oc(C)cc2n1Cc1ccc(C)cc1 | inactive: 17.2% | 
Cc1cccc(N2CCN(C(=O)CN3C(=O)COc4ccc(S(=O)(=O)N5CCCC5)cc43)CC2)c1C | inactive: -12.6% | 
N#C/C(=C\c1c(Oc2ccc(F)cc2)nc2ccccn2c1=O)c1nc2ccccc2s1 | inactive: -7.24% [at 11.5 µM] | 
COCC(=O)O[C@]1(CCN(C)CCCc2nc3ccccc3[nH]2)CCc2cc(F)ccc2[C@@H]1C(C)C | inactive: -19.9% | 
O=C1CC(c2ccc(F)cc2)c2c(n3c(nc4ccccc43)[nH]c2=O)N1 (stereo unspecified) | inactive: -10.3% | 
CCCOc1ccc(C(=O)Nc2sc3c(c2C(=O)OCC)CCCCC3)cc1 | inactive: -2.83% | 
O=C(O)CCCCC1CCSS1 (stereo unspecified) | inactive: 2.84% | 
Cc1oc(-c2cccc(Br)c2)nc1CSc1nc2ncccc2[nH]1 | inactive: -25.1% | 
O=C(NCc1ccccc1Cl)c1cc(-c2ccccc2)n[nH]1 | inactive: 26.3% | 
COCCn1c(CCC(=O)Nc2ccc(OC)c(OC)c2)nc2cccnc21 | inactive: 9.21% | 
O=C(CS(=O)(=O)c1nc(-c2ccc(Cl)cc2)cn1-c1ccccc1)Nc1cccc(Cl)c1 | inactive: -26.7% | 
O=C(Cn1c2ncccc2c(=O)n1-c1ccccc1)NCc1ccccc1 | inactive: -20.5% | 
Cc1oc(-c2cccc(Br)c2)nc1CN1CCC(C(=O)NCc2ccccc2)CC1 | inactive: -11.8% | 
CC(C)NCC(O)c1cc(O)cc(O)c1 (stereo unspecified) | inactive: -5.57% | 
COc1cccc(C2C(C(N)=O)=C(C)Nc3nc(CCCO)nn32)c1 (stereo unspecified) | inactive: -8.21% | 
COc1cccc(CNC(=O)Cc2c(C)c3cc4c(C)coc4cc3oc2=O)c1 | inactive: -9.03% | 
Cc1cc(C)cc(NC(=O)CSc2nccn2C2CCCC2)c1 | inactive: -5.09% | 
COc1cccc(NC(=O)c2csc3c2CCCCC3)c1 | inactive: 19% | 
Cc1ccc(CNCc2ccc3c(c2)n(C)c(=O)n3C)cc1 | inactive: -11.9% | 
c1ccc(Nc2c(-c3ccccc3)nc3ncccn23)cc1 | inactive: -19.1% | 

Compound | activity change, negative = inhibition | Potency
COc1ccc2c(c1)c(=O)c(S(=O)(=O)c1ccc(F)cc1)cn2CC(=O)Nc1ccc(C)cc1C | inactive: -9.64% | 
CCN1C(=O)c2ccccc2Sc2ccc(NC(=O)Cc3ccc(OC)c(OC)c3)cc21 | inactive: -22.8% | 
COc1ccc(CN(C(=O)Nc2cc(C)ccc2C)C2CCN(C(C)=O)CC2)cc1 | inactive: -5.84% | 
COc1cc(NS(=O)(=O)c2ccc(NC(=O)COc3ccc(Cl)cc3Cl)cc2)nc(OC)n1 | inactive: -12.9% | 
CCOc1ccc(NC(=O)CSc2nc(-c3ccccc3)c3cc(OCC)ccc3n2)cc1 | inactive: 3.62% | 
CCOc1ccccc1N(CC)C(=O)Cn1ncc2c1-c1ccccc1OC2 | inactive: -39.4% | 
O=C(NCc1ccccc1Cl)C(=O)NCC(c1ccc2c(c1)OCO2)N1CCOCC1 (stereo unspecified) | inactive: -29.5% | 
COc1ccc(CNC(=O)c2cnc3sc4cc(OC)ccc4n3c2=O)cc1 | inactive: -7.5% | 
CCC(CC)C(=O)N1CCc2cc(OC)c(OC)cc2C1COc1ccc2c(C)cc(=O)oc2c1 (stereo unspecified) | inactive: -13.7% | 
CCOc1ccc2nc(N(Cc3cccnc3)C(=O)c3ccco3)sc2c1 | inactive: 21.4% | 
O=C(c1cc(S(=O)(=O)N2CCCC2)c[nH]1)N1CCN(c2cccc(Cl)c2)CC1 | inactive: -16.6% | 
CCCSc1ncc(Cl)c(C(=O)NCc2ccc(C)cc2)n1 | inactive: -28.4% | 
COc1ccc(CNC(=O)CCS(=O)(=O)c2cc3c4c(c2)CCN4C(=O)CC3)cc1OC | inactive: -12.4% | 
COc1ccc(C2C(C(=O)Nc3cccnc3)=C(C)Nc3nc(-c4ccc(OC)c(OC)c4)nn32)cc1 (stereo unspecified) | inactive: -24.2% | 
CCOC(=O)c1c(C)[nH]c(CCC(=O)NCc2cc(Br)ccc2OC)c1C | inactive: -29.8% | 
Cc1c(C(=O)N2CCCC2)oc2c1-c1nn(CC(=O)NCc3ccccc3F)cc1CC2 | inactive: -23.6% | 
Cc1sc(NC(=O)C2c3ccccc3Oc3ccccc32)c(C(=O)OC(C)C)c1C | inactive: -6.49% | 
Cc1ccc(S(=O)(=O)c2nnn3c2nc(N(C)Cc2ccccc2)c2cc(Cl)ccc23)cc1C | inactive: 0.787% | 
CC(C)NC(=O)C1=CC(c2ccc3c(c2)OCO3)=NS(=O)(=O)N1C | inactive: -12.9% | 
Cc1nnc(N2CCCC(C(=O)Nc3cc(F)ccc3F)C2)c2nn(-c3ccccc3)c(C)c12 (stereo unspecified) | inactive: -3.62% | 
CCCn1cnc2c1c(=O)n(CCCCC(C)=O)c(=O)n2C | inactive: -1.45% | 
CC1CCN(c2nc3ccccc3nc2SCC(=O)Nc2ccccc2C(C)C)CC1 | inactive: -19.6% | 
CCCN1CCN(c2ncnc3sc(C(=O)Nc4ccc(OC(F)(F)F)cc4)c(C)c23)CC1 | inactive: -20.8% | 
CC(=O)c1ccc(NC(=O)Cn2c(=O)nc(-c3ccccc3)c3ccccc32)cc1 | inactive: -17.4% | 

Compound | activity change, negative = inhibition | Potency
COc1cc(NC(=O)COCc2cc(-c3ccc4c(c3)OCO4)on2)c(OC)cc1Cl | inactive: -8.93% | 
CCOc1ccc(C(=O)c2cn(CC(=O)Nc3ccc(C)c(Cl)c3)c3ccc(OCC)cc3c2=O)cc1 | inactive: -11.4% | 
CCCCC(=O)OCc1cc(=O)n2nc(C3CC3)sc2n1 | inactive: -1.02% | 
O=C(NC1(C(F)(F)F)N=C(c2ccccc2)N(Cc2ccccc2)C1=O)c1ccc(F)cc1 (stereo unspecified) | inactive: -18.8% | 
CC1CCN(S(=O)(=O)c2ccc3c(c2)N(CC(=O)N(C)Cc2ccccc2)C(=O)CO3)CC1 | inactive: -8.97% | 
Cc1ccccc1CN1C(=O)C(O)(c2c[nH]c3ccccc23)c2cc(Cl)ccc21 (stereo unspecified) | inactive: -15.3% | 
O=c1c2sc3ccccc3c2n(Cc2cccc(Cl)c2)c(=O)n1Cc1ccc(F)cc1 | inactive: -7.9% | 
O=C(c1ccc2c(c1)N(Cc1ccccc1)C(=O)c1ccccc1S2(=O)=O)N1CCC(Cc2ccccc2)CC1 | inactive: -9.5% | 
Cc1cc(C)c(NC(=O)Cn2nnc3sc4c(c3c2=O)CCC(C(C)(C)C)C4)c(C)c1 (stereo unspecified) | inactive: 13.6% | 
COc1cc(C2c3c(-c4ccccc4O)n[nH]c3C(=O)N2Cc2ccncc2)cc(OC)c1OC (stereo unspecified) | inactive: 1.43% | 
COc1ccc(CNC(=O)C2CCN(C(=O)N3CCOc4ccc(C)cc43)CC2)cc1 | inactive: -31.4% | 
CC1CCCN(C(=O)c2ccc(CSc3nc4ccncc4n3Cc3ccccc3)cc2)C1 (stereo unspecified) | inactive: -23.8% | 
CCc1cc(C(=O)N2CCN(c3ccccc3)CC2)no1 | inactive: -6.58% [at 11.5 µM] | 
Cc1cccc(-n2c(=O)c3c(c4cc(C)ccc4n3C)n(CC(=O)Nc3ccc(C)c(C)c3)c2=O)c1 | inactive: -20.9% | 
COc1ccccc1N1CCN(c2c3c(nc4nncn24)CCC3)CC1 | inactive: -7.88% | 
CC(C)(C)NC(=O)Cn1cc(S(=O)(=O)Cc2ccccc2Cl)c2ccccc21 | inactive: 10.3% | 
Cc1cccc(NC(=O)Cn2c(=O)n(Cc3nc(-c4ccccc4)no3)c(=O)c3ccccc32)c1 | inactive: -32.4% | 
COC(=O)c1sccc1S(=O)(=O)N(CC(=O)NCc1ccc(F)cc1)c1ccccc1 | inactive: -12.7% | 
COc1ccc(C)cc1NS(=O)(=O)c1ccc2c(c1)CCCN2C(C)=O | inactive: -14.8% | 
C#CCN(C)CCCOc1ccc(Cl)cc1Cl | inactive: 7.23% | 
COc1ccc(-c2nc(SCC(=O)NCC3CCCO3)c(-c3ccc(C)cc3)[nH]2)cc1OC (stereo unspecified) | inactive: 4.77% | 
COc1ccc(NC(=O)N2CCN(Cc3nc4ccc(C)cc4o3)CC2)cc1OC | inactive: -20.4% | 
COc1ccc(-c2c(C#N)c(SCC(=O)Nc3ccc(C)c(C)c3)nc(C)c2C(=O)Nc2ccccc2)cc1OC | inactive: -17.9% | 
Cc1ccc(N(C)S(=O)(=O)c2nnc(NC(=O)c3ccco3)s2)cc1 | inactive: -5.1% | 
